# Measured values from the supplement of paper PMC8728848.
# The list shows a part of the results.
# Columns and labels:
# Assay in all cases: glycan array binding signal (z-score within array); higher = stronger binding
# Settings in all cases: glycan notation: IUPAC condensed, linker removed
# GlcNAc(b1-3)Man = molecular target: GlcNAc(b1-3)Man
# Outline: (§1)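 Columns mapping to the same glycan were averaged after glycan names were converted to IUPAC-condensed notation. The data come from 3228 arrays in the Consortium for Functional Glycomics database, limited to those with an available protein sequence. Binding is reported as a within-array Z-score averaged across arrays of one protein sequence and across linkers.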
# [1] = molecular target: GlcNAc(b1-3)[GlcNAc(b1-4)][GlcNAc(b1-6)]GlcNAc
# Outline: as §1
# [2] = molecular target: GlcNAc(b1-3)[GlcNAc(b1-6)]Gal(b1-4)GlcNAc
# Outline: as §1
# [3] = molecular target: GlcNAc(b1-3)[GlcNAc(b1-6)]GalNAc
# Outline: as §1
# [4] = molecular target: GlcNAc(b1-3)[GlcNAc(b1-6)]GlcNAc(b1-4)GlcNAc
# Outline: as §1
# [5] = molecular target: GlcNAc(b1-4)Gal(b1-4)GlcNAc
# Outline: as §1
# GlcNAc(b1-4)GlcNAc = molecular target: GlcNAc(b1-4)GlcNAc
# Outline: as §1
# [6] = molecular target: GlcNAc(b1-4)GlcNAc(b1-4)GlcNAc
# Outline: as §1
# [7] = molecular target: GlcNAc(b1-4)GlcNAc(b1-4)GlcNAc(b1-4)GlcNAc(b1-4)GlcNAc
# Outline: as §1
# [8] = molecular target: GlcNAc(b1-4)GlcNAc(b1-4)GlcNAc(b1-4)GlcNAc(b1-4)GlcNAc(b1-4)GlcNAc
# Outline: as §1
# [9] = molecular target: GlcNAc(b1-4)[GlcNAc(b1-6)]GalNAc
# Outline: as §1
# [10] = molecular target: GlcNAc(b1-6)Gal(b1-4)GlcNAc
# Outline: as §1
# GlcNAc(b1-6)GalNAc = molecular target: GlcNAc(b1-6)GalNAc
# Outline: as §1
# [11] = molecular target: GlcNAc6S(b1-3)Gal(b1-4)GlcNAc
# Outline: as §1
# Kdn(a2-3)Gal(b1-3)GalNAc = molecular target: Kdn(a2-3)Gal(b1-3)GalNAc
# Outline: as §1
# Kdn(a2-3)Gal(b1-3)GlcNAc = molecular target: Kdn(a2-3)Gal(b1-3)GlcNAc
# Outline: as §1
# Kdn(a2-3)Gal(b1-4)Glc = molecular target: Kdn(a2-3)Gal(b1-4)Glc
# Outline: as §1
# Kdn(a2-3)Gal(b1-4)GlcNAc = molecular target: Kdn(a2-3)Gal(b1-4)GlcNAc
# Outline: as §1
# [12] = molecular target: Kdn(a2-3)Gal(b1-4)[Fuc(a1-3)]GlcNAc
# Outline: as §1
# Kdn(a2-6)Gal(b1-4)GlcNAc = molecular target: Kdn(a2-6)Gal(b1-4)GlcNAc
# Outline: as §1
# [13] = molecular target: Man(a1-2)Man(a1-2)Man(a1-3)Man
# Outline: as §1
# [14] = molecular target: Man(a1-2)Man(a1-2)Man(a1-6)[Man(a1-3)]Man
# Outline: as §1
# Man(a1-2)Man(a1-3)Man = molecular target: Man(a1-2)Man(a1-3)Man
# Outline: as §1
# [15] = molecular target: Man(a1-2)Man(a1-3)[Man(a1-2)Man(a1-6)]Man
# Outline: as §1
# [16] = molecular target: Man(a1-2)Man(a1-3)[Man(a1-2)Man(a1-6)]Man(a1-6)[Man(a1-2)Man(a1-2)Man(a1-3)]Man
# Outline: as §1
# [17] = molecular target: Man(a1-2)Man(a1-3)[Man(a1-2)Man(a1-6)]Man(a1-6)[Man(a1-2)Man(a1-2)Man(a1-3)]Man(b1-4)GlcNAc(b1-4)GlcNAc
# Outline: as §1
# [18] = molecular target: Man(a1-2)Man(a1-3)[Man(a1-6)]Man(a1-6)[Man(a1-2)Man(a1-3)]Man(b1-4)GlcNAc(b1-4)GlcNAc
# Outline: as §1
# [19] = molecular target: Man(a1-2)Man(a1-6)[Man(a1-3)]Man(a1-6)[Man(a1-2)Man(a1-2)Man(a1-3)]Man
# Outline: as §1
# [20] = molecular target: Man(a1-2)Man(a1-6)[Man(a1-3)]Man(a1-6)[Man(a1-2)Man(a1-2)Man(a1-3)]Man(b1-4)GlcNAc(b1-4)GlcNAc
# Outline: as §1
# Man(a1-3)[Man(a1-6)]Man = molecular target: Man(a1-3)[Man(a1-6)]Man
# Outline: as §1
# [21] = molecular target: Man(a1-3)[Man(a1-6)]Man(a1-6)[Man(a1-2)Man(a1-3)]Man(b1-4)GlcNAc(b1-4)GlcNAc
# Outline: as §1
# [22] = molecular target: Man(a1-3)[Man(a1-6)]Man(a1-6)[Man(a1-3)]Man
# Outline: as §1
# [23] = molecular target: Man(a1-3)[Man(a1-6)]Man(a1-6)[Man(a1-3)]Man(b1-4)GlcNAc(b1-4)GlcNAc
# Outline: as §1
# [24] = molecular target: Man(a1-3)[Man(a1-6)]Man(b1-4)GlcNAc(b1-4)GlcNAc
# Outline: as §1
# [25] = molecular target: Man(a1-3)[Man(a1-6)]Man(b1-4)GlcNAc(b1-4)[Fuc(a1-6)]GlcNAc
# Outline: as §1
# Man(a1-6)Man = molecular target: Man(a1-6)Man
# Outline: as §1
# Man(b1-4)GlcNAc = molecular target: Man(b1-4)GlcNAc
# Outline: as §1
# MurNAc(b1-4)GlcNAc = molecular target: MurNAc(b1-4)GlcNAc
# Outline: as §1
# Neu5Ac(a2-3)Gal = molecular target: Neu5Ac(a2-3)Gal
# Outline: as §1
# [26] = molecular target: Neu5Ac(a2-3)Gal(b1-3)GalNAc
# Outline: as §1
# [27] = molecular target: Neu5Ac(a2-3)Gal(b1-3)GalNAc(b1-3)Gal(a1-4)Gal(b1-4)Glc
# Outline: as §1
# [28] = molecular target: Neu5Ac(a2-3)Gal(b1-3)GalNAc(b1-3)Gal(b1-4)GlcNAc
# Outline: as §1
# [29] = molecular target: Neu5Ac(a2-3)Gal(b1-3)GalNAc(b1-4)[Neu5Ac(a2-3)]Gal(b1-4)Glc
# Outline: as §1
# [30] = molecular target: Neu5Ac(a2-3)Gal(b1-3)GalNAc(b1-4)[Neu5Ac(a2-8)Neu5Ac(a2-3)]Gal(b1-4)Glc
# Outline: as §1
# [31] = molecular target: Neu5Ac(a2-3)Gal(b1-3)GalNAc6S
# Outline: as §1
binder,measurement,setting,value
"NPA (Narcissus pseudonarcissus), C0HM45 (protein) DNILYSGETLSPGEFLNNGRYVFIMQEDCNLVLYDVDKPIWATNTGGLDRRCHLSMQSDGNLVVYSPRNNPIWASNTGGENGNYVCVLQKDRNVVIYGTARWATGTNIH",glycan array binding signal (z-score),GlcNAc(b1-3)Man,-0.145
same,glycan array binding signal (z-score),[1],-0.134
same,glycan array binding signal (z-score),[2],-0.159
same,glycan array binding signal (z-score),[3],-0.147
same,glycan array binding signal (z-score),[4],-0.205
same,glycan array binding signal (z-score),[5],-0.169
same,glycan array binding signal (z-score),GlcNAc(b1-4)GlcNAc,-0.124
same,glycan array binding signal (z-score),[6],-0.122
same,glycan array binding signal (z-score),[7],-0.127
same,glycan array binding signal (z-score),[8],-0.115
same,glycan array binding signal (z-score),[9],-0.146
same,glycan array binding signal (z-score),[10],-0.138
same,glycan array binding signal (z-score),GlcNAc(b1-6)GalNAc,-0.139
same,glycan array binding signal (z-score),[11],-0.137
same,glycan array binding signal (z-score),Kdn(a2-3)Gal(b1-3)GalNAc,-0.132
same,glycan array binding signal (z-score),Kdn(a2-3)Gal(b1-3)GlcNAc,-0.164
same,glycan array binding signal (z-score),Kdn(a2-3)Gal(b1-4)Glc,-0.136
same,glycan array binding signal (z-score),Kdn(a2-3)Gal(b1-4)GlcNAc,-0.151
same,glycan array binding signal (z-score),[12],-0.132
same,glycan array binding signal (z-score),Kdn(a2-6)Gal(b1-4)GlcNAc,-0.147
same,glycan array binding signal (z-score),[13],0.268
same,glycan array binding signal (z-score),[14],0.568
same,glycan array binding signal (z-score),Man(a1-2)Man(a1-3)Man,-0.076
same,glycan array binding signal (z-score),[15],0.288
same,glycan array binding signal (z-score),[16],0.221
same,glycan array binding signal (z-score),[17],0.144
same,glycan array binding signal (z-score),[18],2.38
same,glycan array binding signal (z-score),[19],1.19
same,glycan array binding signal (z-score),[20],1.83
same,glycan array binding signal (z-score),Man(a1-3)[Man(a1-6)]Man,5.21
same,glycan array binding signal (z-score),[21],5.6
same,glycan array binding signal (z-score),[22],2.47
same,glycan array binding signal (z-score),[23],5.37
same,glycan array binding signal (z-score),[24],10.1
same,glycan array binding signal (z-score),[25],5.34
same,glycan array binding signal (z-score),Man(a1-6)Man,-0.132
same,glycan array binding signal (z-score),Man(b1-4)GlcNAc,-0.151
same,glycan array binding signal (z-score),MurNAc(b1-4)GlcNAc,-0.137
same,glycan array binding signal (z-score),Neu5Ac(a2-3)Gal,-0.148
same,glycan array binding signal (z-score),[26],-0.161
same,glycan array binding signal (z-score),[27],-0.152
same,glycan array binding signal (z-score),[28],-0.194
same,glycan array binding signal (z-score),[29],-0.164
same,glycan array binding signal (z-score),[30],-0.134
same,glycan array binding signal (z-score),[31],-0.153
